# Test results: PubChem BioAssay AID624417 (National Center for Advancing Translational Sciences (NCATS), 2012)
# The campaign covered roughly 410,000 compounds. About 6,400 (1.6%) were called active. This list was built around the results that the source calls inconclusive (neither active nor inactive); the mix of calls is not that of the screen. The call rests on the fitted dose curve; in most records, active means well fitted inhibition curve with a large enough effect; inconclusive means small, poorly fitted or top-dose-only effect; inactive means no such curve, though single readings can be large or run the other way. Potencies of inconclusive entries are left out as doubtful fits.
# Target: Glucagon-like peptide 1 receptor (Homo sapiens) (UniProt P43220)
# Test: qHTS of GLP-1 Receptor Inverse Agonists (Inhibition Mode); further: nearly all actives have a fitted effect of over 55% in size
# Conditions: HEK293 GLP-1R CRE-luciferase, luminescence, 24 h, GLP-1R form is constitutively active; activity change, negative = inhibition: at 38.3 µM (top of the series) unless noted
# Outline: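 Assay principle: reduced luminescence from a cAMP-responsive reporter in HEK293 cells co-expressing a constitutively active GLP-1R. Conditions: 24 hr compound incubation, 37 deg C, 5% CO2.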
# On the % scale 0 is the no-effect control and ±100 the full control effect; potency means the concentration at half of the fitted maximal effect; tags describe the fitted curve by direction and shape.
# Chain of UniProt P43220 (P43220 whole entry, looked up): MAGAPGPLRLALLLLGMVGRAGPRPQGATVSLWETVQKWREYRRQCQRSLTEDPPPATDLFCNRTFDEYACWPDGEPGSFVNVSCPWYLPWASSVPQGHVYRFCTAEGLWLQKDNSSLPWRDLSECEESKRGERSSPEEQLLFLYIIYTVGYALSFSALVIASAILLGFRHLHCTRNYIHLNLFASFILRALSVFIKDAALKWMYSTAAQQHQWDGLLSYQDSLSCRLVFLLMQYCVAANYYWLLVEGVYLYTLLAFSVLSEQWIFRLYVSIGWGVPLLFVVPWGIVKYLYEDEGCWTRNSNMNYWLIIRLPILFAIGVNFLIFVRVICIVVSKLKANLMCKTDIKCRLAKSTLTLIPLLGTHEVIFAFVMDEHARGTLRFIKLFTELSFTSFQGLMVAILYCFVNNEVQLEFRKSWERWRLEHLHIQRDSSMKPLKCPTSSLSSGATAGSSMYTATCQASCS
Structure (SMILES),"activity change, negative = inhibition",Potency
Cn1c(=O)c2c(nc(SCc3nc(N)nc(N4CCCCC4)n3)n2C)n(C)c1=O,inactive: 19%,–
C/C=C(/C)C(=O)OC1Cc2c(ccc3ccc(=O)oc23)OC1(C)C (configuration not stated),–,"inconclusive [inhibitor, partial curve, poor fit]"
CCN1CCn2c3c(c4cc(Br)ccc42)CCCC31 (configuration not stated),–,"inconclusive [inhibitor, partial curve, poor fit]"
CC(CCc1ccccc1)NC(=O)CCc1cn(C)c2ccccc12 (configuration not stated),–,"inconclusive [inhibitor, partial curve, poor fit]"
CCc1nc(N2CCOCC2)c(C#N)c2c1CCCC2,–,"inconclusive [inhibitor, single point]"
CSCCOC(=O)C1=C(C)NC(=O)CC1c1ccccc1Cl (configuration not stated),–,"inconclusive [inhibitor, partial curve, poor fit]"
O=C(CC(=O)c1cccs1)c1ccncc1,–,"inconclusive [inhibitor, single point]"
Cc1c(Cl)c([N+](=O)[O-])nn1CC(=O)N1CCN(C23CC4CC(CC(C4)C2)C3)CC1,–,"inconclusive [inhibitor, partial curve, poor fit]"
Cc1cccc(/C(N)=N/OC(=O)N2c3ccccc3Sc3ccccc32)c1,–,"inconclusive [inhibitor, partial curve, poor fit]"
CCCCc1c(C)c2ccc(OC)c(/C(C)=N\O)c2oc1=O,–,"inconclusive [inhibitor, single point]"
CN(C(=O)CSc1ncnc2ccccc12)C1CCCCC1,–,"inconclusive [inhibitor, single point]"
Cc1ccc(-n2cc(-c3ccccc3)c3c(N4CCN(C)CC4)ncnc32)cc1,–,"inconclusive [inhibitor, partial curve, poor fit]"
O=S(=O)(Cc1ccccc1)NCC1CCCN(Cc2ccc3nonc3c2)C1 (configuration not stated),–,"inconclusive [inhibitor, single point]"
O=C(NCc1ccccc1)C1=C[C@@H](C2CCCCC2)C[C@@H](OCCCCO)O1,–,"inconclusive [inhibitor, single point]"
CCCCOC(=O)c1ccc(NC(=O)c2c(Cl)ccc(Cl)c2OC)cc1,–,"inconclusive [inhibitor, partial curve, poor fit]"
COc1ccc(C)cc1NC(=O)CSc1nnc(COc2ccc(C)cc2)n1Cc1ccco1,–,"inconclusive [inhibitor, single point]"
CCOc1ccc(C(=O)N(Cc2ccccc2)c2cccc(C)c2)cc1OC,–,"inconclusive [inhibitor, partial curve, poor fit]"
COc1ccc(-c2cccc(NS(=O)(=O)c3ccc(NC(C)=O)cc3)c2)nn1,inactive: 4.44%,–
CSCCC(NS(=O)(=O)c1ccc2ccccc2c1)C(=O)OCC(=O)c1ccc(C(C)C)cc1 (configuration not stated),–,"inconclusive [inhibitor, partial curve, poor fit]"
CC(=O)Oc1ccc(C#C/C=C2\c3ccccc3C(=O)N2c2ccccc2)cc1,–,"inconclusive [inhibitor, single point]"
O=C(Nc1ccccc1F)c1ccc(CN2CCN(c3ccccc3)CC2)cc1,–,"inconclusive [inhibitor, partial curve, poor fit]"

Structure (SMILES),"activity change, negative = inhibition",Potency
CC(C)C(CCNC1CCN(C)CC1)c1ccc(Cl)cc1 (configuration not stated),–,"inconclusive [inhibitor, partial curve, poor fit]"
CN(Cc1cnn(C)c1)C(=O)C1CCC(=O)N(C2CCCCCC2)C1 (configuration not stated),inactive: 8.8%,–
COc1ccc(CN2CCN(C(=O)c3cccs3)CC2)cc1,inactive: 3.46%,–
O=C(NC(Nc1nc2ccc([N+](=O)[O-])cc2s1)(C(F)(F)F)C(F)(F)F)c1ccccc1,inactive: -3.99%,–
Nc1c(-c2ccccc2)c(CSc2nc3ccccc3[nH]2)nn1-c1cccc(Cl)c1,–,"inconclusive [inhibitor, single point]"
CCC(C)c1ccccc1OCCOCCN1CCCC1 (configuration not stated),–,"inconclusive [inhibitor, partial curve, poor fit]"
Cc1cccc(-n2ncc(C(=O)NCc3ccc4c(c3)OCO4)c2C2CCN(C(=O)OC(C)(C)C)CC2)c1,–,"inconclusive [inhibitor, single point]"
O=C(CCCSc1nc2ccccc2[nH]1)NCc1ccc(Cl)cc1,–,"inconclusive [inhibitor, single point]"
CCc1ccc(NS(=O)(=O)c2ccc3[nH]c4c(c3c2)CCCCCC4)cc1,–,"inconclusive [inhibitor, single point]"
Cc1cccc(-c2noc(CN(C(=O)c3c(-c4ccccc4Cl)noc3C)C(C)C)n2)c1,–,"inconclusive [inhibitor, partial curve, poor fit]"
CN(C(=O)c1ccc(OC2CCN(Cc3ccccn3)CC2)cc1)C1CCCCC1,–,"inconclusive [inhibitor, partial curve, poor fit]"
CCc1ccccc1NC(=O)Nc1ccc2snnc2c1,–,"inconclusive [inhibitor, single point]"
CCC(CC)C(=O)N1CCc2cc(OC)c(OC)cc2C1COc1ccc(F)cc1 (configuration not stated),–,"inconclusive [inhibitor, single point]"
Cc1cc(N2CCCC2=O)cc(C)c1S(=O)(=O)NCCOc1ccc(C(C)(C)C)cc1,–,"inconclusive [inhibitor, single point]"
O=C(CNC(=O)c1cccc(Br)c1)N/N=C/c1cc(Br)cc(Br)c1O,–,"inconclusive [inhibitor, single point]"
CC1(C)CC(CCN(Cc2ccccc2)C(=O)c2ccco2)(c2ccccc2)CCO1 (configuration not stated),–,"inconclusive [inhibitor, single point]"
COc1ccc(C2(C(=O)NCCCN3CCOCC3)CCOCC2)cc1,inactive: 0%,–
CC(OC(=O)C(C)N1C(=O)C2C3C=CC(C4CC34)C2C1=O)C(=O)c1ccccc1 (configuration not stated),–,"inconclusive [inhibitor, partial curve, poor fit]"
COc1ccc(-n2c(COc3cccc4ccccc34)nnc2SCC#N)cc1,–,"inconclusive [inhibitor, single point]"
CCOC(=O)c1c(C)c(-c2ccccc2)n(CC(=O)N2CCCC2)c1C,–,"inconclusive [inhibitor, partial curve, poor fit]"
COc1ccccc1-c1c(C)nn2c(N)c(-c3ccccc3)cnc12,–,"inconclusive [inhibitor, partial curve, poor fit]"

Structure (SMILES),"activity change, negative = inhibition",Potency
Fc1ccc(NC(=S)N2CCCC2)cc1,inactive: 7.02%,–
O=C(CCCN1C(=O)C(c2ccccc2)Oc2cccnc21)Nc1ccccc1Br (configuration not stated),–,"inconclusive [inhibitor, single point]"
CC(C)CN1CCC(=O)N(CCSc2ccccc2)CC1,–,"inconclusive [inhibitor, single point]"
CCOc1ccc(-c2cc(C)n3nc(C(=O)Nc4cc(Cl)ccc4O)cc3n2)cc1,inactive: 8.91%,–
COc1ccc(-c2ccc3c(c2)C2CC3CCN2)cc1 (configuration not stated),–,"inconclusive [inhibitor, single point]"
Cc1cccc(OCC(=O)OCC(=O)Nc2ccc(Cl)cn2)c1,–,"inconclusive [inhibitor, single point]"
CCC(=O)Nc1ccc(S(=O)(=O)NCc2cccn2Cc2cccc(C)c2)cc1,–,"inconclusive [inhibitor, single point]"
Cc1ccc(OCC(=O)N(Cc2nnc(-c3ccccc3Cl)o2)C2CC2)cc1C,–,"inconclusive [inhibitor, single point]"
O=C(CCCCCCN1C(=O)c2ccccc2C1=O)N1CCC(c2ccccc2)C1 (configuration not stated),–,"inconclusive [inhibitor, partial curve, poor fit]"
Cc1sc(NC(=O)c2ccc(OCC(C)C)cc2)c(C(N)=O)c1-c1ccc(Cl)cc1Cl,–,"inconclusive [inhibitor, full curve, poor fit]"
N#Cc1ccccc1OCC(=O)Nc1nc(-c2ccccn2)cs1,–,"inconclusive [inhibitor, single point]"
CC1(C)OC(=O)C2=C(C[C@@H](C3CCCCC3)O[C@@H]2c2ccc(F)cc2)O1,–,"inconclusive [inhibitor, single point]"
Cc1cc(C)c2c(CN(Cc3ccccc3)Cc3ccccc3)cc(=O)oc2c1,–,"inconclusive [inhibitor, partial curve, poor fit]"
NC(=S)NNC(=O)C12CC3CC(CC(C3)C1)C2,–,"inconclusive [inhibitor, partial curve, poor fit]"
COc1ccc(C(=O)c2ccc(OC)c(Br)c2)cc1Br,inactive: -1.82%,–
Cc1cc(/C=N/NC(=O)C(=O)NCc2ccccn2)c(C)n1-c1cccc(Br)c1,–,"inconclusive [inhibitor, partial curve, poor fit]"
Cc1csc2nc(-c3cccc(NC(=O)c4ccc(S(N)(=O)=O)cc4)c3)cn12,–,"inconclusive [inhibitor, full curve, poor fit]"
O=S(=O)(Nc1cccc(-c2cn3cccnc3n2)c1)c1ccc(-c2ccccc2)cc1,inactive: 0.459%,–
O=C(OCc1cccc(Cl)c1)c1cc(S(=O)(=O)N2CCCCC2)ccc1N1CCOCC1,–,"inconclusive [inhibitor, single point]"
CCOC(=O)[C@H]1[C@H]2COc3ccc(Cl)cc3[C@@H]2N2C(=O)c3ccc(C)cc3NC(=O)[C@@]12C,–,"inconclusive [inhibitor, single point]"
